These results are taken from the supplement of paper PMC11417369.

± gives the standard deviation of the averaged measurements. Some of the results follow.

This assay has as its system PfAP2-G AP2 domain (GST-tagged). The assay is described as follows: gcPBM binding intensity (ln(normalized median fluorescence intensity)); higher = stronger DNA binding. In a few lines:
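The highest Masliner-normalised natural-log median intensity across replicate spots of either probe orientation is reported as binding intensity. GST-tagged P. falciparum DNA-binding domains expressed in E. coli were applied for 1 h to an Agilent 4 × 180k array of primer-extended double-stranded 36-bp intergenic genomic probes plus negative controls, and bound protein was detected with Alexa488 anti-GST antibody and scanned at 488 nm.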
As to “TGATAAATATTATGTTGTACTTTCTGCCCTTCACAT [XGTACX_site5168]”, the “gcPBM binding intensity (ln)” value was 11.3 ± 0.95.

As for “TTTCCCATAGGAAAAACACACATATATTATAGATAA [CACACA_site7019]”, the “gcPBM binding intensity (ln)” value came to 9.84. “TATGCTATTATATATGTACACACCAATTTATTTATA [CACACA_site3918]”: the “gcPBM binding intensity (ln)” value came out at 11.3 ± 0.74. In the case of “ATTATGCACGGACACACACACACACCCCTAAAAAAT [CACACA_site5426]” it was 11.2 ± 0.96; in that of “TGTTAACCACAAAAATAAAATAAAATAAAAATAATA [XGTACX_negctrl_site535]”, 9.94 ± 0.18. Turning to “AAAAAAAAAAAATAGAAAAAAAAATAAAATAAAAAA [CACACA_negctrl_site562]”, the “gcPBM binding intensity (ln)” value turned out to be 9.45 ± 0.042.

Consider “TGTATATAATTTATATGTACATATATTTTATTTTGT [XGTACX_site1905]”, for which the “gcPBM binding intensity (ln)” value is 11.4 ± 0.86. Turning to “GAGAGAGAAATATGCACACATAAGGGAAATAAATAA [CACACA_site1153]”, the “gcPBM binding intensity (ln)” value was determined as 10.2 ± 0.27. Consider “GAAAAAAAAAGTTAAGCACACACATGAATAAATAAT [CACACA_site8179]”, for which the “gcPBM binding intensity (ln)” value was 10.05 ± 0.099. Under “TTTTGATGCTTTAAATGTACAAGGGTTCTTATGAAA [XGTACX_site831]” stands 10.6 ± 0.39; under “AAACCAAAAATAACACGTACAAAAATAAAAAGTATA [XGTACX_site4261]”, 11.2 ± 0.74; under “AAAACATATTTTAAAAGTACTTGAAAAAAAATTTTC [XGTACX_site3940]”, 11 ± 0.56. Under “AAAAAATTTGTTTATTGTACAGAAAGAATTATTATA [XGTACX_site6549]” stands 10.9 ± 0.6; under “TTGTAGGTAAATATGTGTACGCATTATTATTCTTAA [XGTACX_site216]”, 11.5 ± 0.94; under “TTATACCTATATTTAACACACATTTGATAAAGTGCC [CACACA_site6732]”, 9.76 ± 0.099. Under “TGGAGATTTTTAAAGACACACAGGTAAGAATAATAA [CACACA_site1582]” stands 10.01 ± 0.049; under “AAAAAAAACAGACACATACACACAAAAATGTTATAA [CACACA_site82]”, 10 ± 0.16; under “ACCATTTTTATGTATAAACACACGTACCCGCACTAA [CACACA_site1604]”, 11.3 ± 0.77. “GAGAGAGAAATAAAAAGTACATACATATATATACAT [XGTACX_site2267]”: the “gcPBM binding intensity (ln)” value came out at 11.5 ± 0.98. In the case of “AATATATAAATTGACACACACATATATACCTATATA [CACACA_site4803]” it was 10.065 ± 0.007; in that of “AATATAAACACAAACACACACATATAGATTTATATA [CACACA_site6263]”, 9.95 ± 0.028; in that of “CACAATGGTTTATATACACACTGTTGCAAATTCTTC [CACACA_site5659]”, 10.1 ± 0.11. Under “ATTCTTACTAATATCGCACACACATATGTAGACGGG [CACACA_site88]” stands 10.2 ± 0.15; under “TATTTTTTATGATTAACACACACACTAATAAAAAAA [CACACA_site9370]”, 10.4 ± 0.4; under “TATATATATATATATAGTACGCACACATAGTTGCAA [XGTACX_site5875]”, 11.1 ± 0.67. “AAAAAAAAAAAAAAAAGTACAAAAAGGAGAAAGATA [XGTACX_site7862]”: the “gcPBM binding intensity (ln)” value came to 11.4 ± 0.95.

In the case of “ATTTTTTTATTTTTGTGTACTTATAAGAATATTAAT [XGTACX_site4850]”, the “gcPBM binding intensity (ln)” value was determined as 11.7 ± 1.1. Under “AATGAATATATTTATTGTACATATATGAATATTGCA [XGTACX_site8689]” stands 11.2 ± 0.66; under “AATATTTAAAACATATGTACTGAAAAACAATTGGAC [XGTACX_site6360]”, 11.1 ± 0.57. Under “CACAAAGGTCTGAAATTTTAGGGGTGCCTGGGACTA [CACACA_negctrl_site681]” stands 10.4 ± 0.34; under “ACCCAGTGTATTCATAGTACACGCTCATATATTATC [XGTACX_site423]”, 11.1 ± 0.47. Under “AGGTTTATAAAAAAAAAAAAAAAAAAAAAAAAAAAA [GTGCAC_negctrl_site113]” stands 9.62 ± 0.26; under “AAAATGTATGTAGTCTGTACAAATACTCTATAAATA [XGTACX_site6475]”, 10.8 ± 0.5; under “TACAATTTTACTCATAAACACACATATATATGTTAT [CACACA_site9031]”, 10.01 ± 0.057. On to “AACAAGTTGCATGGTGCACACATGTATATATATCTA [CACACA_site2548]”, for which the “gcPBM binding intensity (ln)” value was 10.4 ± 0.4.

In the case of “TATATATATATATGTGCACACCAATTGTATGTAATA [CACACA_site3888]”, the “gcPBM binding intensity (ln)” value was 10.6 ± 0.42. Under “TCATAAAAGATTAAGTGTACATGTGCTACTCTTATA [XGTACX_site6255]” stands 11.2 ± 0.79; under “AATATAAAATCAAGAAATTAAAAAAAAACAGAAAAC [CACACA_negctrl_site1004]”, 9.915 ± 0.007. As to “ACAAGATAATAGAGAAGTACTAATAAACATACACAA [XGTACX_site6617]”, the “gcPBM binding intensity (ln)” value was determined as 11.1 ± 0.77. Turning to “ATAATATAAATTAATTTACACACTAATAAATATATA [CACACA_site9259]”, the “gcPBM binding intensity (ln)” value turned out to be 9.98 ± 0.23. In the case of “TATGTTCCTTTTTGTTGTACTGAAAAATTATGTTCA [XGTACX_site3981]” it was 11.5 ± 0.88.

Consider “ATTTTAAATTTATCTGTGCACAGTATTATATAAGCA [GTGCAC_site9806]”, for which the “gcPBM binding intensity (ln)” value worked out at 10.4 ± 0.21. In the case of “TATTTATATTTATATACACACATACATATTTATATT [CACACA_site6535]” it was 9.915 ± 0.007; in that of “TTATATTAATAAAAAGAAAATCATTTTTTCTTTTAT [CACACA_negctrl_site1595]”, 9.71 ± 0.19.
